Test results taken from patent publication US20200164083A1 (PROLYNX, published 2020).

B1: [N28A]exenatide (peptide)
peptide: not shown
modifications: chain 1: C-terminal amide (-NH2) on Ser39
B2: [N28K]exenatide (peptide)
peptide: not shown
modifications: chain 1: C-terminal amide (-NH2) on Ser39

Biological target: GLP-1 receptor
Test: cell-based or functional assay

| Binder | EC50, cAMP assay (GLP1R cAMP Hunter bioassay) [nM] |
| --- | --- |
| B1 | 0.025 |
| B2 | 0.035 |
